Measurements from PubChem BioAssay AID624296 (National Center for Advancing Translational Sciences (NCATS), 2012).
Out of some 350,000 compounds screened, about 9,900 (2.8%) were called active. Inconclusive results, whose numbers are uncertain, are shown with a selection of clear calls. The call rests on the fitted dose curve; in most records, active means well fitted activation curve with a large enough effect; inconclusive means small, poorly fitted or top-dose-only effect; inactive means no such curve, though single readings can be large or run the other way. Potencies of inconclusive entries are left out as doubtful fits.

Assay: A quantitative high throughput screen for small molecules that induce DNA re-replication in MCF 10a normal breast cells. Further: nearly all actives have a fitted effect of over 50% in size.
Conditions: MCF 10A DNA re-replication, Hoechst nuclear intensity, 48 h; series mostly up to 46.1 µM
Potency means the concentration at half of the fitted maximal effect; tags describe the fitted curve by direction and shape.

Compound | Potency
Oc1ccc2ccccc2c1/C=N/c1nc2c(s1)CCCC2 | inconclusive [activator, single point]
Cc1ccsc1C1Nc2ccc3ncccc3c2C2=C1C(=O)CC(C)(C)C2 (centres undefined) | inconclusive [activator, partial curve, poor fit]
O=C(O)CCCCCCCCCC(=O)c1cccs1 | inactive
Cc1ccc(NC(=O)C(C)OC(=O)/C=C/c2ccccc2)cc1S(=O)(=O)N1CCOCC1 (centres undefined) | inactive
CC(Sc1ccc2nnc(-c3ccc(F)cc3)n2n1)C(=O)O (centres undefined) | inactive
Cc1cccc(N2C(=O)C=CC2=O)c1 | active: 20.6 µM
O=C(O)C(Cc1cc(I)c(O)c(I)c1)c1ccccc1 (centres undefined) | inconclusive [activator, partial curve, poor fit]
COc1ccc(N2C(=S)N=C(Nc3ccccc3)C23CCCCC3)cc1 | inconclusive [activator, single point]
CCOC(=O)c1cc(NC(=O)Nc2ccc(Br)cc2)c(C)nc1C | inconclusive [activator, single point]
OC[C@@H]1[C@@H](c2ccccc2)C(c2ccc(F)cc2)=NN1c1ccccc1 | inconclusive [activator, partial curve, poor fit]
CCN(CC)CCN1C(=O)c2oc3ccccc3c(=O)c2C1c1ccc(C)cc1 (centres undefined) | inconclusive [activator, full curve]
Cc1noc(C)c1C(=O)Nc1nc(-c2cc(F)ccc2F)cs1 | inconclusive [activator, full curve, poor fit]
COc1ccc2[nH]c(=O)c(CN(Cc3cccnc3)Cc3nnnn3CC3CCCO3)cc2c1 (centres undefined) | inactive
Cc1ccc(C)c(NC(=O)c2cc(-c3cc(C)c(C)cc3O)n[nH]2)c1 | inconclusive [activator, single point]
COC(=O)[C@@]12CCCN1[C@H](c1ccc(SC3CCCCC3)cc1)[C@H]1C(=O)N(C)C(=O)[C@H]12 | inconclusive [activator, single point]
Cc1cccc(NS(=O)(=O)c2ccc3nc(-c4ccccc4)[nH]c3c2)c1C | inconclusive [activator, single point]
Cc1ccccc1-c1ocnc1C(=O)Nc1ccccc1NC(=O)c1ccccn1 | inconclusive [activator, single point]
Cc1cc(Nc2ccc(C)c(Cl)c2)nc(N2CCOCC2)n1 | inconclusive [activator, partial curve, poor fit]
COc1ccc(C(=O)COC(=O)[C@H](C)NS(=O)(=O)c2ccc(NC(C)=O)cc2)cc1OC | inactive
Cc1nn(Cc2c(F)c(F)c(F)c(F)c2F)c(C)c1NC(=O)c1c(-c2ccccc2)nn(-c2ccccc2)c1C | active: 23.1 µM
O=c1c2cc(NC(=S)NCCN3CCCCCC3)ccc2nc2n1CCCCC2 | inactive
OCC1(Cc2ccc(Cl)cc2)CCN(CC2CC=CCC2)CC1 (centres undefined) | inconclusive [activator, single point]
Cc1cc(C)c(C)c(OCC(=O)O/N=C(\N)c2ccccn2)c1 | inconclusive [activator, partial curve]

Compound | Potency
CCc1noc(C)c1C(=O)NNC(=O)COc1ccc(C)cc1 | inconclusive [activator, full curve, poor fit]
CC(C)(C)OC(=O)N[C@@H](Cc1ccccc1)c1nnc(S(=O)(=O)Cc2cccc(F)c2)o1 | inconclusive [activator, single point]
COC(=O)c1ccc(OCC(=O)Nc2nn(-c3ccccc3)nc2C(N)=O)cc1 | inconclusive [activator, full curve, poor fit]
COc1ccc(N(CC(=O)NCCc2ccccc2)C(=O)c2csnn2)cc1 | inactive
COc1ccccc1C1=NOC(Cn2c(=O)c3c(ncn3C)n(C)c2=O)C1 (centres undefined) | inactive
COc1ccc(CCN2C(=O)c3ccccc3C2(O)c2ncc[nH]2)cc1OC (centres undefined) | inconclusive [activator, full curve, poor fit]
c1ccc(OCCOc2cccc3cccnc23)cc1 | inactive
Cc1ccc(NC(=O)N/C=C/c2ccco2)cc1 | inconclusive [activator, single point]
CCCCNC(=O)CC1S/C(=N/N=C/c2ccc(OC)cc2)NC1=O (centres undefined) | inactive
Cc1cc(C(=O)N/N=C/c2ccc(C)o2)c2ccccc2n1 | active: 1.84 µM
O=c1[nH]c(CSc2nc3ccccc3[nH]2)nc2c1cnn2-c1ccccc1 | inconclusive [activator, partial curve, poor fit]
OC(COc1cccc2ccccc12)CN1CCN(c2cccc(Cl)c2)CC1 (centres undefined) | active: 25.9 µM
O=C(Nc1nnc(C2CC2)s1)C1CCCCC1 | inactive
CN1CCN(c2ccc(NC(=O)COc3ccc(Cl)cc3Cl)cc2)CC1 | inconclusive [activator, single point]
Cn1nc(-c2ccc(N3CCOCC3)c(NS(=O)(=O)c3ccc(Cl)cc3)c2)c2ccccc2c1=O | inconclusive [activator, single point]
C=CCOC(=O)N1CCC2CC1c1cc(-c3ccc(OC)cc3)ccc12 (centres undefined) | inconclusive [activator, partial curve, poor fit]
CCCCC(=O)O[C@]1(C(=O)CO)CCC2C3CCC4=CC(=O)CCC4(C)C3C(O)CC21C (some centres undefined) | inactive
COC(=O)/C=C1\SC(N2CCOCC2)=C(c2ccc(OC)cc2)C1=O | inconclusive [activator, single point]
CCCCCCCCn1c(=O)c(C(=O)OC)c(N)c2ccccc21 | active: 20.6 µM
CCc1nn(CCCC(=O)N2CCN(c3cccc(C)c3C)CC2)c(=O)c2cc3occc3n12 | inconclusive [activator, partial curve, poor fit]
COc1ccc(-n2c(=O)c3c4c(sc3n3c(=S)[nH]nc23)COC(C(C)C)C4)cc1 (centres undefined) | inconclusive [activator, full curve, poor fit]
CCCCCN(C(=O)NC(=O)Nc1ccccc1C)S(=O)(=O)c1ccccc1 | inconclusive [activator, single point]
CC(C)(C)c1cc(C(C)(C)C)n(-c2ccccc2)n1 | inconclusive [activator, partial curve, poor fit]

Compound | Potency
COC(=O)CNC(=O)c1c(-c2ccccc2Cl)noc1C | inconclusive [activator, partial curve, poor fit]
CN(CCO)CCC(=O)NC1(C)CS(=O)(=O)CC1S(=O)(=O)O (centres undefined) | inactive
COC(=O)c1ccc(-c2nc3ccc(C)cc3o2)cc1 | inconclusive [activator, full curve]
COCCNC(=O)/C(C#N)=C/c1ccc(O)c([N+](=O)[O-])c1 | inactive
Cc1ccc(S(=O)(=O)c2cc3c(=O)n4ccccc4nc3n(C3CCCCC3)c2=N)cc1 | inactive
O=C(/C(=N/N=C/c1ccc(O)c(O)c1O)c1ccccc1)c1ccccc1 | inconclusive [activator, single point]
COc1ccc(C(=O)C(CN2CCOCC2)c2ccccc2)cc1 (centres undefined) | inconclusive [activator, partial curve, poor fit]
CCc1cccc(CC)c1NC(=O)Cn1c(-c2ccccc2Cl)nc2ccccc21 | inconclusive [activator, single point]
COc1ccc(C(CNC(=O)CNS(=O)(=O)c2ccc(NC(C)=O)cc2)N2CCOCC2)cc1 (centres undefined) | inactive
CCOC(=O)C1C2C=CC3(CN(C4CCCC4)C(=O)C13)O2 (centres undefined) | inconclusive [activator, single point]
COc1ccc(C)cc1-n1nnnc1SCC(=O)c1ccc2c(c1)OCCO2 | inactive
CSc1ccccc1NC(=O)CN(C)C(=O)Cn1c(=O)oc2ccccc21 | inactive
CCN1CCN(c2nc(-c3ccccc3)nc3ccccc23)CC1 | inconclusive [activator, single point]
O=C(COc1ccccc1)N1CCN(S(=O)(=O)c2ccc(Br)cc2)CC1 | inactive
Cc1oc(-c2cccc(Cl)c2)nc1CN1CCC(C(=O)NCCCN2CCCC2=O)CC1 | inactive
CCN1CCN(c2ccc(NC(=O)c3cc(OC)c(OC)c(OC)c3)cc2)CC1 | inconclusive [activator, partial curve, poor fit]
COc1ccc(NC(=O)c2ccccc2)cc1 | inconclusive [activator, full curve, poor fit]
COc1ccccc1/C=C\C=N\n1c(-c2ccc(Cl)cc2)n[nH]c1=S | inconclusive [activator, partial curve, poor fit]
c1ccc(COc2ccc(OCCCCN3CCCC3)cc2)cc1 | inconclusive [activator, partial curve, poor fit]
O=Cc1c(Nc2ccccc2Cl)nc2ccccn2c1=O | inactive
COc1ccc(CC(=O)NNC(=O)c2cnccn2)cc1 | inactive
COc1ccc(C(=O)N(C)CC2CCN(CCc3cccc(C(F)(F)F)c3)CC2)cc1C | inconclusive [activator, single point]
C/C(CC(=O)Nc1ccc(Cl)c(C(F)(F)F)c1)=N\NC(=O)c1cnccn1 | inconclusive [activator, partial curve, poor fit]
